Results on 34 variants are retold here after the RNAGym collection of RNA variant scans (doi:10.1093/nar/gkz1192).

B1: CPEB3 Ribozyme (parent)
chain: UAACAGGGGGCCACAGCAGAAGCGUUCACGUCGCAGCCCCUGUCAGAUUCUGGUGAAUCUGCGAAUUCUGCUGUAUAUCUC

Read counts are not given, so values of variants with three or more changes are uncertain.

In this data set the parent is B1. Kind of data set: self-cleavage, relative activity (ratio to wild type); higher = more cleavage; in vitro, sequencing. An outline of the steps:
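Relative activity compares each variant's cleaved/total read fraction with that of the unmutated ribozyme. To get these fractions, barcoded CPEB3 ribozyme libraries from rounds of error-prone PCR were transcribed with T7 RNA polymerase for 5 hours at 37°C and then given 15 min of DNase I treatment before EDTA was added. The RNAs were reverse transcribed with template switching and sequenced on Illumina, and DNA sequencing linked barcodes to variants. A minimum of 5 reads applied, and three batches were averaged.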
For the variant UAACAGGGGGCCACAGCAGAAGCGUUCACGUCGCAGCCCCUGUCGGAUUCUAGUGGAUCUGCGAAUUCUGCUGUAUAUCUC [A45G G52A A56G], the self-cleavage is 0.85.

For UAACAGGGGGCCACAGCAGAAGCGUUCACGUCGCAGCCCCUGUCGAAUUCGGGUGAAUCUGCUAAUUCUGCUGUAUACCUC [A45G G46A U51G G63U U78C], the self-cleavage is 0.05.

Consider UAACAGGGGGCCACAGCAGAAGCGUUCACGUCGCAGCCCCUGUCGGAUUCUGGUAAAUCUGCGAACUCUGCUGUAUAUCUC [A45G G55A U66C], for which the self-cleavage came to 0.22.

On to UAACAGGGGGCCACAGCAGAAGCGUUCACGUCGCAGCCCCUGUCGGAUCCUGGUGAAUCUGCGAAUUCUGCUGUAUAUCCC [A45G U49C U80C], for which the self-cleavage was 0.17.

In the case of UAACAGGGGGCCACAGCAGAAGCGUUCACGUCGCAGCCCCUGUCGGAUUCUGGAGAAUCGGCGAAUUCUGCUGUAUAUCUC [A45G U54A U60G], the self-cleavage is 0.28.

On to UAACAGGGGGCCACAGCAGAAGCGUUCACGUCGCAGCCCCUGUCGGAUUCUGGAGAAUCAGCGAAUUCUGCUGUAUAUCUC [A45G U54A U60A], for which the self-cleavage worked out at 0.54.

As to UAACAGGGGGCCACAGCAGAAGCGUUCACGUCGCAGCCCCUGUCGGAUACCGGUGAAUCUGCGAAUUAUGCUGUACAUCUC [A45G U49A U51C C68A U76C], the self-cleavage is 0.4.

On to UAACAGGGGGCCACAGCAGAAGCGUUCACGUCGCAGCCCCUGUCGGAUUCUGGAGAGUCUGCGAAUUCCGCUGUAUAUCUC [A45G U54A A57G U69C], for which the self-cleavage was found to be 0.41.

UAACAGGGGGCCACAGCAGAAGCGUUCACGUCGCAGCCCCUGUCGGACUCUGGAGAAUCUGCGAAUUCUGCUGUAUAUCUC [A45G U48C U54A]: the self-cleavage is 0.58.

UAACAGGGGGCCACAGCAGAAGCGUUCACGUCGCAGCCCCUGUCGGAUACUGGUGGAUCUGCGAACUCUGCUGCAUAUCUC [A45G U49A A56G U66C U74C]: the self-cleavage amounted to 0.09.

For the variant UAACAGGGGGCCACAGCAGAAGCGUUCACGUCGCAGCCCCUGUCGGAUUCUGGUGAAUCUGGGAGUUCUGCUGUAUAUCUC [A45G C62G A65G], the self-cleavage was 0.24.

With UAACAGGGGGCCACAGCAGAAGCGUUCACGUCGCAGCCCCUGUCGGAUUCUGGUGACUCUGCGAGUUCUGCUGUAUAUCUC [A45G A57C A65G], the self-cleavage stood at 0.04.

As for UAACAGGGGGCCACAGCAGAAGCGUUCACGUCGCAGCCCCUGUCGGAUUCUGGUGAGUCCGCGAAUUCUGCUGUAUGUCUC [A45G A57G U60C A77G], the self-cleavage stood at 0.94.

As for UAACAGGGGGCCACAGCAGAAGCGUUCACGUCGCAGCCCCUGUCGGAUUCUGGUGAAUCUGUGAAUUCUGCUGUAUAUCCC [A45G C62U U80C], the self-cleavage came out at 0.28.

UAACAGGGGGCCACAGCAGAAGCGUUCACGUCGCAGCCCCUGUCGGAUUCUGGUGAAUCUGCAAAUUCUGCUGUAUACCUC [A45G G63A U78C]: the self-cleavage is 0.42.

Turning to UAACAGGGGGCCACAGCAGAAGCGUUCACGUCGCAGCCCCUGUCGCAUUCUGGUGAAUCUGCGAAUACAGCUGUAUAUCUC [A45G G46C U67A U69A], the self-cleavage was 0.05.

Consider UAACAGGGGGCCACAGCAGAAGCGUUCACGUCGCAGCCCCUGUCGGAUUCUGGUGAAUCUGCGAGUUCUGCUGUAUAUCAC [A45G A65G U80A], for which the self-cleavage was 0.19.

On to UAACAGGGGGCCACAGCAGAAGCGUUCACGUCGCAGCCCCUGUCGGAUUCUCGUGAACCUGCGAAUUCAGCUGUAUAUCUU [A45G G52C U58C U69A C81U], for which the self-cleavage came out at 0.1.

On to UAACAGGGGGCCACAGCAGAAGCGUUCACGUCGCAGCCCCUGUCGGAUUCCGGCGAAUCUGCGAAUUCUGCUGUAUAUCUC [A45G U51C U54C], for which the self-cleavage is 0.48.

UAACAGGGGGCCACAGCAGAAGCGUUCACGUCGCAGCCCCUGUCGGAUUCUGCUGAAUCUGCGAAUUCAGCUGUAUAUCUC [A45G G53C U69A]: the self-cleavage was found to be 0.32.

For UAACAGGGGGCCACAGCAGAAGCGUUCACGUCGCAGCCCCUGUCGGAUUCUGGUUAAUCCGCGAAUCCUGCUGUGUAUCUC [A45G G55U U60C U67C A75G], the self-cleavage came out at 0.13.

With UAACAGGGGGCCACAGCAGAAGCGUUCACGUCGCAGCCCCUGUCGGAUCCUGGUGAUUCUGCGAAUUCUGCUGUACACCUC [A45G U49C A57U U76C U78C], the self-cleavage was 0.15.

On to UAACAGGGGGCCACAGCAGAAGCGUUCACGUCGCAGCCCCUGUCGGAUUCUGGUGAAUCUGCGGAUUCGGCUGUAUACCUC [A45G A64G U69G U78C], for which the self-cleavage was 0.13.

In the case of UAACAGGGGGCCACAGCAGAAGCGUUCACGUCGCAGCCCCUGUCGGAUUCUGGUGACCCUGCGAAUUCCGCUGUAUAUCUC [A45G A57C U58C U69C], the self-cleavage was 0.24.

For UAACAGGGGGCCACAGCAGAAGCGUUCACGUCGCAGCCCCUGUCGGAUACUGGUGAAUCAGCGAAUUCUGCUGUAUAUCUC [A45G U49A U60A], the self-cleavage stood at 0.12.

Regarding UAACAGGGGGCCACAGCAGAAGCGUUCACGUCGCAGCCCCUGUCGGAUUUUGGUGAAUCUGCGAAUUCCGCUGUAUAUCUC [A45G C50U U69C], the self-cleavage stood at 0.22.

In the case of UAACAGGGGGCCACAGCAGAAGCGUUCACGUCGCAGCCCCUGUCGGAUUCUGGAGGAUCUGCGAAUUCUGCUGUAUAUCUC [A45G U54A A56G], the self-cleavage stood at 0.52.

Take UAACAGGGGGCCACAGCAGAAGCGUUCACGUCGCAGCCCCUGUCGGAUUCUGGAGAGUCUGCGUAUUCUGCUGUAUAUAUC [A45G U54A A57G A64U C79A]: the self-cleavage was 0.26.

As to UAACAGGGGGCCACAGCAGAAGCGUUCACGUCGCAGCCCCUGUCGGAUUCUGGUGAAUCUGCGGAUUCUGCUGUGUAUCAC [A45G A64G A75G U80A], the self-cleavage amounted to 0.36.

As to UAACAGGGGGCCACAGCAGAAGCGUUCACGUCGCAGCCCCUGUCGGAUUAUGGUGAAUCAGCGAAUACUGCUGUAUAUCUC [A45G C50A U60A U67A], the self-cleavage worked out at 0.12.

As to UAACAGGGGGCCACAGCAGAAGCGUUCACGUCGCAGCCCCUGUCGGAUACUGGAGAAUCUGCGAAUACUGCCGUAUAUCCC [A45G U49A U54A U67A U72C U80C], the self-cleavage is 0.24.

For the variant UAACAGGGGGCCACAGCAGAAGCGUUCACGUCGCAGCCCCUGUCGGAUUCUGGUGAAUCUGCGGUUUCUGCUGUAUAUCUC [A45G A64G A65U], the self-cleavage came out at 0.32.

Take UAACAGGGGGCCACAGCAGAAGCGUUCACGUCGCAGCCCCUGUCGGAUUCCUGUGAAUCUGCGAAUUCUGCUGUAAAUCUC [A45G U51C G52U U76A]: the self-cleavage worked out at 0.95.

For the variant UAACAGGGGGCCACAGCAGAAGCGUUCACGUCGCAGCCCCUGUCGAAUUCUGGUGAAUCUGCGAAUUCUGCUGUAUACCUC [A45G G46A U78C], the self-cleavage stood at 0.25.
